Data on 5 molecules can be found in article PMC5993806.

Amino acid sequences for entries named in this document (tags omitted). A change or cut given only in a name is not applied to a line headed by its entry.
UniProt Q15172: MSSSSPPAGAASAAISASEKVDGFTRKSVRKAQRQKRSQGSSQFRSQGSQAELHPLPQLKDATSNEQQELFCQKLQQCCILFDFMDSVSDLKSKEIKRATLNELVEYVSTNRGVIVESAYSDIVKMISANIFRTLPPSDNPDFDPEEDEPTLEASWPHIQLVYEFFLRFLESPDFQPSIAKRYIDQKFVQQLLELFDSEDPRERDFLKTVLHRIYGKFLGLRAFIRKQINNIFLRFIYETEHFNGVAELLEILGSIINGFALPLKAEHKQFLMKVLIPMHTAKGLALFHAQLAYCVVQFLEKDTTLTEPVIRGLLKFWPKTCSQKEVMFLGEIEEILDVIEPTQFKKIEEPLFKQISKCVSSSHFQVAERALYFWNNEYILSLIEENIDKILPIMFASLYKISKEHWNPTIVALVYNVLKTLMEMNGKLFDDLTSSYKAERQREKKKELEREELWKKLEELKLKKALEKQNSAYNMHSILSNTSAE
UniProt Q15173: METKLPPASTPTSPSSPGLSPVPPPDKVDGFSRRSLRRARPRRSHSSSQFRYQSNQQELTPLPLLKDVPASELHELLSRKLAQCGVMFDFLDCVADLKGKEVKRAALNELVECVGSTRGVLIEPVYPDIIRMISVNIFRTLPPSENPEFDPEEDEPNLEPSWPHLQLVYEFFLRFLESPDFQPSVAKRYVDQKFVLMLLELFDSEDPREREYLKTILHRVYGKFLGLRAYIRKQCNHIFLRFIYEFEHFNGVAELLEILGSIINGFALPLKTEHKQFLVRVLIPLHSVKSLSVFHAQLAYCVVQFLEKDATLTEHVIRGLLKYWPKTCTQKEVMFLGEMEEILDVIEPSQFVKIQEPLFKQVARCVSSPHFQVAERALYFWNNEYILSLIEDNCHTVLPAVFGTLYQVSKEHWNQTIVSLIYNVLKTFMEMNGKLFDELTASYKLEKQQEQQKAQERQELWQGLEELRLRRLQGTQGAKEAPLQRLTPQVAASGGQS
UniProt Q9Y3Z3: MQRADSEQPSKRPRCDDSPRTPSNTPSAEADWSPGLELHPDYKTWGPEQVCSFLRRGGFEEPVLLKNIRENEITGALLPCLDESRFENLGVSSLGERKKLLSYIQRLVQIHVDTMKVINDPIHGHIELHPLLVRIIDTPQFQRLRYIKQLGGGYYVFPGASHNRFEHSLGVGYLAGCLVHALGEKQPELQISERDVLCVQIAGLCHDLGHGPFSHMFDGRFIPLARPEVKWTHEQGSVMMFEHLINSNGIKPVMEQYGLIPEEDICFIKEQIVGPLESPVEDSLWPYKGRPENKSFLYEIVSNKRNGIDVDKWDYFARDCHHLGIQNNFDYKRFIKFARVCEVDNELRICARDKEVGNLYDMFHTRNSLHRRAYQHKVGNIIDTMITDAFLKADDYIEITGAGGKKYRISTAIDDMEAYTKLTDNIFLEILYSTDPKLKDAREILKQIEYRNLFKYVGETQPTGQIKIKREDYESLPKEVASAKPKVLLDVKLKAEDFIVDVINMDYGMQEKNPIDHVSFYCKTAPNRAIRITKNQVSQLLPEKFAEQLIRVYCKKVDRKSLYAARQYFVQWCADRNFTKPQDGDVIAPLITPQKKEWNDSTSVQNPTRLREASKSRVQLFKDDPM
UniProt P30153: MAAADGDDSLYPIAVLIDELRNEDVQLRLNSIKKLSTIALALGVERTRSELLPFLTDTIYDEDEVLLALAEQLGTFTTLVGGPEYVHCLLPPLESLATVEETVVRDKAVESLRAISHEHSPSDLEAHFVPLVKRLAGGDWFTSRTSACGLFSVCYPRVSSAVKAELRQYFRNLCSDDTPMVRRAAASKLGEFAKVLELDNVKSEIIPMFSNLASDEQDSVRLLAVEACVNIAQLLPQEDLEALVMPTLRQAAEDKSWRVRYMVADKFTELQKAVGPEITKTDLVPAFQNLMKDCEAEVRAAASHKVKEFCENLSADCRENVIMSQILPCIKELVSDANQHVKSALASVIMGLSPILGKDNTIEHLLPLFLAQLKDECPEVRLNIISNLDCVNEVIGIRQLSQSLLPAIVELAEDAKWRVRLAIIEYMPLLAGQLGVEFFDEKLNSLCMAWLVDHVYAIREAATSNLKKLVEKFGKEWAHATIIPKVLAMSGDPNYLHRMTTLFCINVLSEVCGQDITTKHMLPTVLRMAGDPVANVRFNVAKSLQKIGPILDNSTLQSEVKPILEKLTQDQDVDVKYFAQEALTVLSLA

Where two headings read alike, the source gives them in different places. Results are given in words; binding and its absence hold for the method and conditions named. Binding seen in cells or lysates may run through a third protein. Some binding calls cover weakened binding; strength is not graded here. For some assays here: Where a sequence is shown, tags or fusion partners need not be part of it.

The target of assay [1] is T1, N-terminally GST-tagged PP2A B55α subunit (UniProt P63151).
T1 sequence: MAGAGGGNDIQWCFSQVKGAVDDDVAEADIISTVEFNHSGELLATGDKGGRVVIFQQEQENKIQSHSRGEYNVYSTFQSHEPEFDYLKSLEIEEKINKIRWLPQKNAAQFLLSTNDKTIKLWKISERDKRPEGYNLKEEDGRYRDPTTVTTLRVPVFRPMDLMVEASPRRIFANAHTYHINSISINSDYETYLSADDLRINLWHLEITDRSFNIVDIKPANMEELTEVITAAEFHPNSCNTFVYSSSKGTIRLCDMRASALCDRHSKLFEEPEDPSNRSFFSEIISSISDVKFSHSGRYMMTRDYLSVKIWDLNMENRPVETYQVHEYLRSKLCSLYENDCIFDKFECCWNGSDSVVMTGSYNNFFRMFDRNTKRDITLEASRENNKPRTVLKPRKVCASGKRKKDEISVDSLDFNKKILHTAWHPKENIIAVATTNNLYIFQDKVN
The experiment in a line: co-IP; HEK293T cells co-transfected with nFLAG-SAMHD1 and GST-tagged PP2A B-type subunits; NET lysis buffer; GST-Trap_M magnetic beads, 1.5 h at 4 °C; immunoblot. A general note: Immunoblotting shows a protein as a band on a membrane.

Assay [2] concerns the target N-terminally GST-tagged PP2A B56α subunit (UniProt Q15172). The assay is described as above.
Assay [3] deals with N-terminally GST-tagged PP2A B56β subunit (UniProt Q15173). The assay is described as above.
In assay [4] the target is T2, N-terminally GST-tagged PP2A PR72 subunit (UniProt Q06190).
T2 sequence: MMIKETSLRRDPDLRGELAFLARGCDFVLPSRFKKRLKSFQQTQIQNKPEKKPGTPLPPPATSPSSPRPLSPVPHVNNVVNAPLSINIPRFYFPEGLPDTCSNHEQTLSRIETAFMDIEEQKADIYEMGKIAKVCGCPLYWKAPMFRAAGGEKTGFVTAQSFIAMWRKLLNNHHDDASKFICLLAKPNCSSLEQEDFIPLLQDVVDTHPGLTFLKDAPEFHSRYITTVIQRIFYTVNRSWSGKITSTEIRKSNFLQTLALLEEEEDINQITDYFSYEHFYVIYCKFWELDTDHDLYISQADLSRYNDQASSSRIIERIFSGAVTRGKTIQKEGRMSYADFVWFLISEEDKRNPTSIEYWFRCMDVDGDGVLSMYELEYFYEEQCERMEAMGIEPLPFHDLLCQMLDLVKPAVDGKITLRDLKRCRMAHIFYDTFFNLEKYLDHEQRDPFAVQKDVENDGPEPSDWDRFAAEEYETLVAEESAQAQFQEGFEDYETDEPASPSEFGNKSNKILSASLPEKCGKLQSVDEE
The description is as above.

Assay [5] addresses N-terminally FLAG-tagged SAMHD1 (human, wild type) (human) (UniProt Q9Y3Z3). The experiment in a line: co-IP.
Assay [6] addresses SAMHD1 R451E (human) (UniProt Q9Y3Z3). Nature of the assay: co-IP.
In assay [7] the target is SAMHD1 T592A (human) (UniProt Q9Y3Z3). The experiment in a line: co-IP.
Assay [8] concerns the target SAMHD1 T592E (human) (UniProt Q9Y3Z3). Nature of the assay: co-IP.
Assay [9] concerns the target N-terminally FLAG-tagged SAMHD1 (human, wild type) (human) (UniProt Q9Y3Z3). Nature of the assay: co-IP. The source holds these as a separate data set.
Assay [10] deals with endogenous SAMHD1 (THP-1) (human (endogenous in THP-1)) (UniProt Q9Y3Z3). The experiment in a line: co-IP; cycling THP-1 cells (2 x 10^7 cells/sample); anti-IgG1/SAMHD1-coated sepharose beads; immunoblot; both proteins endogenous.

For the molecule “N-terminally FLAG-tagged SAMHD1 (human, wild type) (from UniProt Q9Y3Z3 1-626)”, the binding result in [1] is recorded as “binds”; in assay [2], “no binding”; in assay [3], “no binding”; in [4] it was “no binding”.

As to “PP2A Aα subunit (from UniProt P30153 1-589)”, the binding entry in [5], in assay [6], in assay [7] and in [8] was “binds” each time.

B1: GFP-tagged PP2A B55α subunit (protein, UniProt P63151 1-447)
chain: MAGAGGGNDIQWCFSQVKGAVDDDVAEADIISTVEFNHSGELLATGDKGGRVVIFQQEQENKIQSHSRGEYNVYSTFQSHEPEFDYLKSLEIEEKINKIRWLPQKNAAQFLLSTNDKTIKLWKISERDKRPEGYNLKEEDGRYRDPTTVTTLRVPVFRPMDLMVEASPRRIFANAHTYHINSISINSDYETYLSADDLRINLWHLEITDRSFNIVDIKPANMEELTEVITAAEFHPNSCNTFVYSSSKGTIRLCDMRASALCDRHSKLFEEPEDPSNRSFFSEIISSISDVKFSHSGRYMMTRDYLSVKIWDLNMENRPVETYQVHEYLRSKLCSLYENDCIFDKFECCWNGSDSVVMTGSYNNFFRMFDRNTKRDITLEASRENNKPRTVLKPRKVCASGKRKKDEISVDSLDFNKKILHTAWHPKENIIAVATTNNLYIFQDKVN
On to B1, for which, in [9], the binding result is on record as “binds”.

B2: endogenous PP2A B55α subunit (THP-1) (protein, UniProt P63151 1-447)
chain: MAGAGGGNDIQWCFSQVKGAVDDDVAEADIISTVEFNHSGELLATGDKGGRVVIFQQEQENKIQSHSRGEYNVYSTFQSHEPEFDYLKSLEIEEKINKIRWLPQKNAAQFLLSTNDKTIKLWKISERDKRPEGYNLKEEDGRYRDPTTVTTLRVPVFRPMDLMVEASPRRIFANAHTYHINSISINSDYETYLSADDLRINLWHLEITDRSFNIVDIKPANMEELTEVITAAEFHPNSCNTFVYSSSKGTIRLCDMRASALCDRHSKLFEEPEDPSNRSFFSEIISSISDVKFSHSGRYMMTRDYLSVKIWDLNMENRPVETYQVHEYLRSKLCSLYENDCIFDKFECCWNGSDSVVMTGSYNNFFRMFDRNTKRDITLEASRENNKPRTVLKPRKVCASGKRKKDEISVDSLDFNKKILHTAWHPKENIIAVATTNNLYIFQDKVN
With B2, the binding result in assay [10] was “binds”.

B3: endogenous PP2A B55α subunit (HEK293T) (protein, UniProt P63151 1-447)
chain: MAGAGGGNDIQWCFSQVKGAVDDDVAEADIISTVEFNHSGELLATGDKGGRVVIFQQEQENKIQSHSRGEYNVYSTFQSHEPEFDYLKSLEIEEKINKIRWLPQKNAAQFLLSTNDKTIKLWKISERDKRPEGYNLKEEDGRYRDPTTVTTLRVPVFRPMDLMVEASPRRIFANAHTYHINSISINSDYETYLSADDLRINLWHLEITDRSFNIVDIKPANMEELTEVITAAEFHPNSCNTFVYSSSKGTIRLCDMRASALCDRHSKLFEEPEDPSNRSFFSEIISSISDVKFSHSGRYMMTRDYLSVKIWDLNMENRPVETYQVHEYLRSKLCSLYENDCIFDKFECCWNGSDSVVMTGSYNNFFRMFDRNTKRDITLEASRENNKPRTVLKPRKVCASGKRKKDEISVDSLDFNKKILHTAWHPKENIIAVATTNNLYIFQDKVN
As to B3, the binding result in [9] is on record as “binds”.
